Drawing on the RNAGym collection of RNA variant scans (doi:10.1101/gad.245936.114), this text covers nonsense suppression for 27 variants.

B1: tRNA (parent)
chain: CUCUCGGUAGCCAAGUUGGUUUAAGGCGCAAGACUUUAAUUUAUCACUACGAAAUCUUGAGAUCGGGCGUUCGACUCGCCCCCGGGAGAUUUUUUCCUCGAGCAA

Variants at the background level are over-represented here.

Variants of B1 are the subject of this series. The experiment in a line: nonsense suppression (GFP-seq) (ratio to wild type); higher = more function; SUP4oc tRNA, yeast GFP reporter sort-seq. Summed up: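 Sorted GFP/RFP bins of yeast were each Illumina-sequenced with a phred ≥30 cutoff; the cells held a genome-integrated ochre-suppressor tRNA variant from a library with ~3% random mutations, a galactose-driven GFP ochre reporter, and RFP. Culture was in raffinose/galactose medium containing 80 mg/L adenine. Nonsense suppression, termed GFPSEQ, is the median GFP/RFP of the bins weighted by each variant's estimated cell share per bin, relative to the unmutated parent tRNA, for variants reaching ≥100 reads and ≥30 cells.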
In the case of CUCUCGGUAGCCAAGUUGGUUUAAGGCGCGAGACUUUAAUUUAUCACUACGAAAUCUUAAGAUCGGGCGUUCCACUCGCCCCCGGGAGAUUUUUUCCUCGAGCAA [A30G G59A G73C], the nonsense suppression is ≤ 0.026.

Regarding GUCUCGGUAGCCAAGUUGGUUUCAGGCGCAAGACUUUAAUUUAUCACUACGAAAGCUAGAGAUCGGGCGUUCGAUUCGCCCCCGGGAGAUUUUUUCCUCGAGCAA [C1G A23C U55G U58A C75U], the nonsense suppression was ≤ 0.026.

In the case of CUCUCGGUAGCCAAGUUCGUUUAAGGCGCAAGACUUUAAUUUAUCACUACGAAAACUUGAGAUCGGGCGUUCGACUCGCCCCCGGGAGAUUUUUUCCUCGAGCAA [G18C U55A], the nonsense suppression is ≤ 0.026. Consider CUCUCGGUAGCCAAGUUGGUUUAAGGCGCACGACAUUAAUUUAUCACUACGAAAACUUGAGAUCGGGCGUUCGACCCGCCCCCGGAAGAUUUUUUCCUCGAGCAA [A31C U35A U55A U76C G86A], for which the nonsense suppression was ≤ 0.026.

For the variant CUCUCGGUUGCCAAGUUGGUUUAAGGCGCAAGACUUUAAUUUAUCACUACGAAAUCUUGAGAUCGGGCGUUCGACUCGCCCCCGGGAGUUUUUUUCCUCGAGCAA [A9U A89U], the nonsense suppression is ≤ 0.026.

In the case of CUCUCGGUAGCCAAGUUGGUUUAGGGCGCAAGACUUUAAUUUAUCACUACGAAAUCUAGAGAUCGGGCGUUCGACUCGCCCCCGGGAGAUUUUUUCCUCGAGCAA [A24G U58A], the nonsense suppression was ≤ 0.026. For the variant CUCUCGGUAGCCAACUUGGUUUAAGGCGCAAGACUUUAAUUUAUCACUACGAAAUCUUGUGAUCGGGCGUUCGACUCGCCCCCGGGAGAUUUUUUCCUCGAGCAA [G15C A60U], the nonsense suppression was ≤ 0.026. Take CUCUCGGUAGCCAAGUUGGUUUAAGACGCAACACUUUAAUUUAUCACUACGAAAUCUUGAGAUCGGGCGUUCGACUCGCCCGCAGGAGAUUUUUUCCUCGAGCAA [G26A G32C C82G G84A]: the nonsense suppression is ≤ 0.026.

Turning to CUCUCGGUAGCCAAGUUGGUUUAAGGCGCAAGACGUUAAUUUAUCACUACGAAAUCUUGAGAUCGGGCGUUCGACUCGCCCCCGAGAGAUUUUUUCCUCGAGCAA [U35G G85A], the nonsense suppression is ≤ 0.026. For the variant CUAUCGGUAGCCAAGUUGGUUUAAGGCGCAAGACUUUAAUUUAUCACUACGAAAUCUUGAGUUCGGGCGUUCGACUCGCCCCCGGGAGAUUUUUUCCUCGAGCAA [C3A A62U], the nonsense suppression is ≤ 0.026.

In the case of CUCUCGGUAGCCAAGUUGGUUUAAGCCGCAAUACUUUAAUUUAUCACUACGAAAUCUUGAGAUCGGGCGUUCGACUCGCCCCCGGGAGAUUUUUUCCUCGAGCAA [G26C G32U], the nonsense suppression is ≤ 0.026. In the case of CUCUCGGUAGCCAAGUUGGUUUAAGGCGCAAGACUUUAAUUUAUCACUACGAAAUCUUAAGAUCGGGCGUUCGACUCGCGCCCGGGAGAUUUUUUCCUCGAGCAA [G59A C80G] it was ≤ 0.026. In the case of GUCUCGGUAGCCAAGUAGGUUUAAGGCGCAAGACUUUAAUUUAUCACUACGAAAUCUUGAGAUCGGGCGGUCGACUCGCCCCCGGGAGAUUUUUUCCUCGAGCAA [C1G U17A U70G] it was ≤ 0.026; in that of CUCUCGGUAGCCAAGUUGGUUUAAGGCGCAAGACUUUAAUUUAUCACUACGAAAUCUUGAGCUCUGGCGUUGGACUCGCCCCCGGGAGAUUUUUUCCUCGAGCAA [A62C G65U C72G], ≤ 0.026. As for CUCUCGGUUGCCAAGUUGGUUUGAGGCGCAAGACUUUAAUUUAUCACUACGAAACCUUGAGUUCGAGCGUUCGACUCGCCCCCGGGAGAUUUUUUCCUCGAGCAA [A9U A23G U55C A62U G66A], the nonsense suppression is ≤ 0.026.

Consider CUCUCAGUAGCCAAGUUGGUUUAACGCGCAAGGCUUUAAUUUAUCACUACGAAAUCUUGAGAUCGGGCGUUCGACUCGCCCCCGGGAGAUUUUUUCCUCGAGCAA [G6A G25C A33G], for which the nonsense suppression is ≤ 0.026.

Regarding CUCUCGGUAGCCAAGUUUGUUUAAGGCGCUAGACUUUAAUUUAUCACUACGAAAUCUUGAGAUCGGGUGUUCGACUCGCCCCCGGGAGAUUUUUUCCUCGAGCAA [G18U A30U C68U], the nonsense suppression was ≤ 0.026. CUCUCGUUAGACAAGUUGGUUUAAGGCGCAAGACUUUAAUUUAUCACUACGAAAUCUUGAGAUCGGGCCUUCGACUCGCCCCCAGGAGAUUUUUUCCUCGAGCAA [G7U C11A G69C G84A]: the nonsense suppression was ≤ 0.026. As to GUCUCGGUAGCCAAUUUGGUUUAAGGCGCAAGACUUUAAUUUAUCACUACGAAAUCUUGAGAUCGGGCGUUCGACUCGCCCCCGGGACAUUUUUUCCUCGAGCAA [C1G G15U G88C], the nonsense suppression was ≤ 0.026. In the case of CUCUCGGUAGCCAAGUUGGGUUAAGGCGCGAGACUUUAAUUUAUCACUACGAAAUCUUGAGAUCGGGCGUACGACUCGCCCCCGGGAGAUUUUUUCCUCGAGCAA [U20G A30G U71A] it was ≤ 0.026; in that of CUCUCGGUAGCCAAGUUGGUUUAAGGCGCAAGGCUUUAAUUUAUCACUACGAAAUCUUGAAAUCGGGCGUUCGACUCGACCCCGGGAGAUUUUUUCCUCGAGCAA [A33G G61A C79A], ≤ 0.026.

Take CUGUAGGUAGCCAAGUUGUUUUAAGGCGCAAGACUUUAAUUUAUCACUACGAAAUCUUGAGAUCGGGCGUUCGACUCGCCCCCGGGAGAUUUUUUCCUCGAGCAA [C3G C5A G19U]: the nonsense suppression is ≤ 0.026. Regarding CUCUCGGUAGCCAAGUUGGUUUAAGGCUCAGGACUUUAAUUUAUCACUACGAAAGCUUGACAUCGGGCGUUCGACUCGCCCCCGGGAGAUUUUUUCCUCGAGCAA [G28U A31G U55G G61C], the nonsense suppression was ≤ 0.026. The result for CUCUCUGUAGCCCAGUUGGUCUAAGGCGCAAGACUUUAAUUUAUCACUACGAAAUCUUGAGAACGGGCGUUCGACUCGCCCCCGGGAGAUUUUUUCCUCGAGCAA [G6U A13C U21C U63A] reads ≤ 0.026. As for CCCUUGGUAGCCAAGUUGGUUUAAGGCGCAAGACUUUAAUUUAUCACUACGAAAUCUUGAGAUCGGGCGUUCGACUCGCCCCCGGGAGAUUUUUUCCUCGAGCAA [U2C C5U], the nonsense suppression is ≤ 0.026.

Take CUCUCGGUAGCGAAGUUGGUUUAAGGCGCAAGACUUUAAUUUAUCACUACGAAAUCUCGAGAUCGGGCGUUCGACUCGCCCCCGGGUGAUUUUUUCCUCGAGCAA [C12G U58C A87U]: the nonsense suppression is ≤ 0.026. In the case of AACUCGGUAGCCAAGUUGGUUUAAGGCGCAAUACAUUAAUUUAUCACUACGAAAUCUUGAGAUCGGGGGUUCGACUCGCCCCCGGGAGAUUUUUUCCUCGAGCAA [C1A U2A G32U U35A C68G] it was ≤ 0.026.
